Results as given in PubChem BioAssay AID624417 (National Center for Advancing Translational Sciences (NCATS), 2012).
Screen size: about 410,000 compounds; about 6,400 (1.6%) were called active. The shares of active, inactive and inconclusive entries below differ from those in the screen. Calls come from the whole dose curve; as a rule, active = well fitted inhibition curve with a large enough effect; inconclusive = small, poorly fitted or top-dose-only effect; inactive = no such curve, though single readings can be large or run the other way. Potencies of inconclusive entries are doubtful fits and often do not repeat.

The molecules below were run against Glucagon-like peptide 1 receptor (Homo sapiens) (UniProt P43220) (assay: qHTS of GLP-1 Receptor Inverse Agonists (Inhibition Mode)). Details: HEK293 GLP-1R CRE-luciferase, luminescence, 24 h, GLP-1R form is constitutively active; series mostly up to 38.3 µM.
Method in brief: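 GLP-1R inverse agonism mode: basal reporter luminescence in engineered HEK293 cells measured after one day of compound exposure at 37 deg C, with a 12 min room-temperature detection step.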
Note: nearly all actives have a fitted effect of over 55% in size.
Potency is the fitted concentration of half-maximal effect; tags give direction and shape of the fitted curve.

UniProt P43220, sequence (P43220 whole entry, looked up): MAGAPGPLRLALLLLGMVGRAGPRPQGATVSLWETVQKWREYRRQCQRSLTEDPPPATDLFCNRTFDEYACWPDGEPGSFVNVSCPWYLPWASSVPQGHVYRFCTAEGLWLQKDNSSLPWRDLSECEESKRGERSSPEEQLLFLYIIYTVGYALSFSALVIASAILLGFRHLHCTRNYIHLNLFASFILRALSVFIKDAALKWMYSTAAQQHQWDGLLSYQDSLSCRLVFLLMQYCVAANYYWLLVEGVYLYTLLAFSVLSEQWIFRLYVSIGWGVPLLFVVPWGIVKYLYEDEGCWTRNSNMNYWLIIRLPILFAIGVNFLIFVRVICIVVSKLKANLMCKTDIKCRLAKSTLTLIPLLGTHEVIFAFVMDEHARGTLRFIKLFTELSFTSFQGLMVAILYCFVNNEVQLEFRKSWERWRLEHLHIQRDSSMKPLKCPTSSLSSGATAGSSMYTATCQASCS

Potency, inactive:
Cn1c(=O)n(C)c2cc([N+](=O)[O-])c(N3CCN(S(=O)(=O)c4ccc(C(C)(C)C)cc4)CC3)cc21, COc1ccc(-c2onc(C)c2C)cc1S(=O)(=O)NCc1ccco1, COc1cccc(-c2cnc3c(NC=O)cc(-c4ccoc4)cn23)c1

Potency, inconclusive:
CCOc1ccc(C(=O)NCc2ccc3c(c2)CCN3C(=O)c2ccccc2)cc1 10 µM [inhibitor, partial curve, poor fit], COc1ccc(CNS(=O)(=O)c2ccc3c(c2)N(C(C)=O)CC(C)S3)cc1 (configuration not stated) 4.47 µM [inhibitor, partial curve], CC(C)=CCCC1(C)C=Cc2c(ccc3c2[nH]c2cc(O)c(C)cc23)O1 (configuration not stated) 12.6 µM [inhibitor, single point], O=C(NCc1ccco1)C(c1ccco1)N(CCc1ccccc1)C(=O)Cn1nnc2ccccc21 (configuration not stated) 8.91 µM [inhibitor, partial curve, poor fit], Cn1c(=O)c2cc(NC(=O)NCc3ccc(F)cc3)ccc2n1Cc1cccc(C(F)(F)F)c1 22.4 µM [inhibitor, single point], CN(C)S(=O)(=O)N1CCC(c2ccc(F)cc2)C(COc2ccc3c(c2)OCO3)C1 (configuration not stated) 20 µM [inhibitor, single point], COc1ccc(OCCN2CCC(C(=O)NC(c3ccc(Cl)cc3)c3cnccn3)CC2)cc1 (configuration not stated) 10 µM [inhibitor, single point], COc1cccc(N2CC(NS(=O)(=O)c3ccc(Cl)cc3)CC2=O)c1 (configuration not stated) 10 µM [inhibitor, partial curve, poor fit], Cc1cc(C)n(CC(=O)N2c3ccccc3Sc3ccccc32)n1 28.2 µM [inhibitor, single point], CCCCCCn1nc(C(=O)Nc2nc3c(s2)CCCC3)c2ccccc2c1=O 1.78 µM [inhibitor, full curve, poor fit], Cc1ccc(CN2CCSc3ccc(C(=O)Nc4ccc(F)cc4F)cc32)cc1 22.4 µM [inhibitor, single point], O=C1CCCN1CCCNc1nc(NCc2ccccc2)nc2ccsc12 11.2 µM [inhibitor, partial curve, poor fit], CCCN1CCn2c3c(c4cc(Br)ccc42)CCCC31 (configuration not stated) 11.2 µM [inhibitor, partial curve]

Potency, active:
Cc1cc(S(=O)(=O)N2CCN(CC(=O)N(C)Cc3ccccc3)CC2)ccc1Br 8.91 µM
